Here are results for 5 molecules from patent US20180094059A1 (UNIVERSITAT STUTTGART, published 2018).

Sequences and labels used below:
B1: scFvhu225-Fc-scTRAIL3-FLVGGGPQRVA (Fc fusion)
chain: DYKDDDDKGGGGSGTEVQLVESGGGLVQPGGSLRLSCAASGFSLTNYGVHWVRQAPGKGLEWLGVIWSGGNTDYNTPFTSRFTISRDNSKNTLYLQMNSLRAEDTAVYYCARALTYYDYEFAYWGQGTTVTVSSGGGGSGGGGSGGGGSDIQLTQSPSFLSASVGDRVTITCRASQSIGTNIHWYQQKPGKAPKLLIKYASESISGVPSRFSGSGSGTEFTLTISSLQPEDFATYYCQQNNNWPTTFGAGTKLEIKRAAAGGSGG[sequence of human IgG1 Fc omitted]GGSGGGSSGGGPQRVAAHITGTRGRSNTLSSPNSKNEKALGRKINSWESSRSGHSFLSNLHLRNGELVIHEKGFYYIYSQTYFRFQEEIKENTKNDKQMVQYIYKYTSYPDPILLMKSARNSCWSKDAEYGLYSIYQGGIFELKENDRIFVSVTNEHLIDMDHEASFFGAFLVGGGPQRVAAHITGTRGRSNTLSSPNSKNEKALGRKINSWESSRSGHSFLSNLHLRNGELVIHEKGFYYIYSQTYFRFQEEIKENTKNDKQMVQYIYKYTSYPDPILLMKSARNSCWSKDAEYGLYSIYQGGIFELKENDRIFVSVTNEHLIDMDHEASFFGAFLVGGGPQRVAAHITGTRGRSNTLSSPNSKNEKALGRKINSWESSRSGHSFLSNLHLRNGELVIHEKGFYYIYSQTYFRFQEEIKENTKNDKQMVQYIYKYTSYPDPILLMKSARNSCWSKDAEYGLYSIYQGGIFELKENDRIFVSVTNEHLIDMDHEASFFGAFLVG
notes: Dimeric EGFR-targeting fusion protein; also called scFv-Fc-scTRAIL3
B2: scFv4D5-EHD2-scTRAIL3-FLVGGGPQRVA (other)
chain: DYKDDDDKGGGGSGT[sequence of about 120 residues omitted]GGGGSGGGGSGGGGS[sequence of about 100 residues omitted]RAAAGGSGGDFTPPTVKILQSSCDGGGHFPPTIQLLCLVSGYTPGTINITWLEDGQVMDVDLSTASTTQEGELASTQSELTLSQKHWLSDRTYTCQVTYQGHTFEDSTKKCADSNGGSGGASSGGGPQRVAAHITGTRGRSNTLSSPNSKNEKALGRKINSWESSRSGHSFLSNLHLRNGELVIHEKGFYYIYSQTYFRFQEEIKENTKNDKQMVQYIYKYTSYPDPILLMKSARNSCWSKDAEYGLYSIYQGGIFELKENDRIFVSVTNEHLIDMDHEASFFGAFLVGGGPQRVAAHITGTRGRSNTLSSPNSKNEKALGRKINSWESSRSGHSFLSNLHLRNGELVIHEKGFYYIYSQTYFRFQEEIKENTKNDKQMVQYIYKYTSYPDPILLMKSARNSCWSKDAEYGLYSIYQGGIFELKENDRIFVSVTNEHLIDMDHEASFFGAFLVGGGPQRVAAHITGTRGRSNTLSSPNSKNEKALGRKINSWESSRSGHSFLSNLHLRNGELVIHEKGFYYIYSQTYFRFQEEIKENTKNDKQMVQYIYKYTSYPDPILLMKSARNSCWSKDAEYGLYSIYQGGIFELKENDRIFVSVTNEHLIDMDHEASFFGAFLVG
notes: HER2-targeting EHD2 fusion
B3: scTRAIL3-FAVSGAA-Fc-scTRAIL3-FAVSGAA (Fc fusion)
chain: DYKDDDDKGGGGSGTGGAAAHITGTRGRSNTLSSPNSKNEKALGRKINSWESSRSGHSFLSNLHLRNGELVIHEKGFYYIYSQTYFRFQEEIKENTKNDKQMVQYIYKYTSYPDPILLMKSARNSCWSKDAEYGLYSIYQGGIFELKENDRIFVSVTNEHLIDMDHEASFFGAFAVSGAAAHITGTRGRSNTLSSPNSKNEKALGRKINSWESSRSGHSFLSNLHLRNGELVIHEKGFYYIYSQTYFRFQEEIKENTKNDKQMVQYIYKYTSYPDPILLMKSARNSCWSKDAEYGLYSIYQGGIFELKENDRIFVSVTNEHLIDMDHEASFFGAFAVSGAAAHITGTRGRSNTLSSPNSKNEKALGRKINSWESSRSGHSFLSNLHLRNGELVIHEKGFYYIYSQTYFRFQEEIKENTKNDKQMVQYIYKYTSYPDPILLMKSARNSCWSKDAEYGLYSIYQGGIFELKENDRIFVSVTNEHLIDMDHEASFFGAFAVSGSGNGTSNGTSGSSRT[sequence of human IgG1 Fc omitted]GSGNGTSNGTSGSSGGAAAHITGTRGRSNTLSSPNSKNEKALGRKINSWESSRSGHSFLSNLHLRNGELVIHEKGFYYIYSQTYFRFQEEIKENTKNDKQMVQYIYKYTSYPDPILLMKSARNSCWSKDAEYGLYSIYQGGIFELKENDRIFVSVTNEHLIDMDHEASFFGAFAVSGAAAHITGTRGRSNTLSSPNSKNEKALGRKINSWESSRSGHSFLSNLHLRNGELVIHEKGFYYIYSQTYFRFQEEIKENTKNDKQMVQYIYKYTSYPDPILLMKSARNSCWSKDAEYGLYSIYQGGIFELKENDRIFVSVTNEHLIDMDHEASFFGAFAVSGAAAHITGTRGRSNTLSSPNSKNEKALGRKINSWESSRSGHSFLSNLHLRNGELVIHEKGFYYIYSQTYFRFQEEIKENTKNDKQMVQYIYKYTSYPDPILLMKSARNSCWSKDAEYGLYSIYQGGIFELKENDRIFVSVTNEHLIDMDHEASFFGAFAVS
modifications: two 16 aa linkers with N-glycosylation sites
notes: Tetrameric assembly of scTRAIL3-FAVSGAA
B4: scTRAIL3-FAVSGAA-“W”-Fc (Fc fusion)
chain: DYKDDDDKGGGGSGTGGAAAHITGTRGRSNTLSSPNSKNEKALGRKINSWESSRSGHSFLSNLHLRNGELVIHEKGFYYIYSQTYFRFQEEIKENTKNDKQMVQYIYKYTSYPDPILLMKSARNSCWSKDAEYGLYSIYQGGIFELKENDRIFVSVTNEHLIDMDHEASFFGAFAVSGAAAHITGTRGRSNTLSSPNSKNEKALGRKINSWESSRSGHSFLSNLHLRNGELVIHEKGFYYIYSQTYFRFQEEIKENTKNDKQMVQYIYKYTSYPDPILLMKSARNSCWSKDAEYGLYSIYQGGIFELKENDRIFVSVTNEHLIDMDHEASFFGAFAVSGAAAHITGTRGRSNTLSSPNSKNEKALGRKINSWESSRSGHSFLSNLHLRNGELVIHEKGFYYIYSQTYFRFQEEIKENTKNDKQMVQYIYKYTSYPDPILLMKSARNSCWSKDAEYGLYSIYQGGIFELKENDRIFVSVTNEHLIDMDHEASFFGAFAVSGGSGEAAAKEAAAKEAAAKEAAAKEAAAKGSGG[sequence of human IgG1 Fc omitted]
notes: 33 aa alpha-helical linker; dimeric; also called scTRAIL3-“W”-FAVSGAA-Fc
B5: TRAIL-R1-Fc (Fc fusion)
chain: not shown
notes: extracellular domain; also called DR4-Fc; not shown: Fc-part

The target in experiment [1] is EGFR on EGFR-positive tumor cell lines (UniProt P00533). The experiment can be described thus: cell-based or functional assay.
The target in experiment [2] is T1, TRAIL-R2-Fc (human, UniProt O14763 56-210).
T1 construct: extracellular domain; also called DR5-Fc; DR5-Fc fusion protein; not shown: Fc-part
The experiment can be described thus: ELISA, TRAIL-R2-Fc.

For experiment [3], the target named is B5. As to the kind of experiment: ELISA, TRAIL R1-Fc.
In experiment [4] the target is T1, TRAIL-R2-Fc. The experiment can be described thus: ELISA, TRAIL R2-Fc.
The target in experiment [5] is B5. The experiment can be described thus: ELISA, TRAIL R1-Fc. This is another data set of the same source.
Experiment [6] has as its target T1, TRAIL-R2-Fc. As to the kind of experiment: ELISA, TRAIL R2-Fc. The source holds these as a separate data set. A general note: ELISA stands for enzyme-linked immunosorbent assay.
Experiment [7] addresses T2, scTRAIL3-… (Homo sapiens (Human), UniProt P50591 118-281).
T2 construct: additional N-terminal FLAG tag; also called monomeric control protein
The experiment can be described thus: ELISA, TRAIL R1-Fc.

Sequence of TRAIL-R1-Fc (O00220 24-239): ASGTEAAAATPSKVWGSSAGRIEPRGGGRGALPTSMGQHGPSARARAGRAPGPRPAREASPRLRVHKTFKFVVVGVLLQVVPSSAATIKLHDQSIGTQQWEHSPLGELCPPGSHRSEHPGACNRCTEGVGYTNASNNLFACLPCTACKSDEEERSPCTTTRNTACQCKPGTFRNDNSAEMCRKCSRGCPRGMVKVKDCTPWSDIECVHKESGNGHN

In the case of B1, in experiment [1], the “EC50 of cell death induction, Colo205, with bortezomib” value was determined as 2.3 pM; the “EC50 of cell death induction, Colo205, without bortezomib” value amounted to 12.5 pM; the “EC50 of cell death induction, Colo205 in presence of Cetuximab, with bortezomib” value was determined as 5.7 pM; the “EC50 of cell death induction, Colo205 in presence of Cetuximab, without bortezomib” value came to 66.2 pM.

For B2, the concentration for a half-maximal effect (EC50) with TRAIL-R2-Fc [2] is 2.21 nM.

Take B3: the binding result in the experiment with TRAIL-R1-Fc [3] and with TRAIL-R2-Fc [4] was “binds” throughout.

Take B4: the concentration giving a half-maximal response (EC50) in the experiment with TRAIL-R1-Fc [5] worked out at 3.91 nM; in the experiment with TRAIL-R2-Fc [6], 0.54 nM.

For the molecule B5, the binding result in experiment [7] is “binds”.

For orientation: EC50 means the midpoint of the concentration-response curve. A higher EC50 goes with weaker potency.
